# Test results reported in the supplement of paper PMC3334620.
# Over roughly 33,000 sequences, “E-score (-0.5 to 0.5)” has its median near -0.035; the highest 2% begin near 0.34. This is one part of the list.
# Molecular target: T1, Mot3 (UniProt P54785)
# T1 sequence: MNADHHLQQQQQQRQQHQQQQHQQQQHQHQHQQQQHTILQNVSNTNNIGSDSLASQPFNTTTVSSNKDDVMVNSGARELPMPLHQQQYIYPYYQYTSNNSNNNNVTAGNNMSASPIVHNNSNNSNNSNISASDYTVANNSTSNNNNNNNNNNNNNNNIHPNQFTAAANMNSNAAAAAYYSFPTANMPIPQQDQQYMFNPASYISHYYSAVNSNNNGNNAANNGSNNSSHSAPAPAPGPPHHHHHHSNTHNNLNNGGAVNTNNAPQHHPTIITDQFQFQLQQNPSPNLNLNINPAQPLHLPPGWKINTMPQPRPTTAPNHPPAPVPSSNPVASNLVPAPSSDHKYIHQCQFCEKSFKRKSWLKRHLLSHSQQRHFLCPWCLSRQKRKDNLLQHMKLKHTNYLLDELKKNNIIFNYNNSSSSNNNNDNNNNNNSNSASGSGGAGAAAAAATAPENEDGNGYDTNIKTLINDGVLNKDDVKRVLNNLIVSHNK
# Test: PBM E-score (8-mer binding enrichment) (E-score (-0.5 to 0.5)); higher = stronger / more preferred TF binding; most listed sequences are background and not binding sites
# Conditions: protein concentration: 200 nM; construct: GST-full length
# Outline: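 E-scores (a modified Wilcoxon-Mann-Whitney statistic) were assigned by the Universal PBM Analysis Suite to every ungapped eight-base word pooled with its reverse complement. The input came from universal all-10-mer Agilent arrays made double-stranded by primer extension and probed with GST-tagged yeast transcription factors at about 100-200 nM. Fluorescent anti-GST detected bound protein, and masliner normalised the scans.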
row,Sequence,PBM E-score
1,AAGATTCG,-0.0684
2,GCTTAAGA,-0.0368
3,AAAGCAAG,0.0192
4,AGTGATAA,-0.173
5,AAGACCTC,-0.3
6,TCAGCCGA,-0.216
7,ACCCATAG,-0.206
8,CTCAAGGA,0.0622
9,AAGCGCTG,0.00897
10,ACCCGTTA,0.0678
11,AAATAAGA,-0.00703
12,ATATAAGA,0.0589
13,CCTCGCTA,-0.228
14,CTGTTACA,0.166
15,GCAGGACA,-0.0645
16,GAAGATCC,-0.129
17,ACTGCCGC,-0.261
18,AGTAAAAC,0.179
19,CGTGCATC,-0.181
20,CCCGCGAA,-0.162
21,ATCGTAAG,-0.0233
22,AGATAACA,0.264
23,GTGCTCTA,0.0193
24,CATAGAAC,-0.0217
25,AACGTTTG,-0.00016

row,Sequence,PBM E-score
1,CAGCTAGA,-0.154
2,CCCATGAA,-0.0112
3,TCAGGCAA,0.483
4,ATGCAGAC,-0.0602
5,ACTTAGAT,0.0482
6,GGACATAC,0.0426
7,AACAAATG,0.149
8,CCTTTTAC,0.171
9,CGGAGCTC,-0.228
10,CTTCCAAA,0.0856
11,ACACTGGA,-0.00662
12,GCTGTATA,0.145
13,AATCAGCG,-0.133
14,AACGCCGT,-0.0672
15,AAATACCT,0.0955
16,CCTATTGC,0.0511
17,CGACCTGA,0.0446
18,GATCCCAA,-0.238
19,GCATGGGA,0.0073
20,AAATTCTC,-0.197
21,AAGGAGGA,-0.0237
22,GCCACTGA,-0.101
23,CCCTTGAG,-0.225
24,ATAACTTC,0.0157
25,GAAGGTTA,0.00929

row,Sequence,PBM E-score
1,AACGTCTA,-0.0565
2,GGAAAATA,0.166
3,GAGCCTGA,0.26
4,CCATAACG,-0.1
5,ACTAACTG,-0.0138
6,GACATACA,0.218
7,ACCCTCGG,-0.175
8,CATACTGA,-0.00538
9,CATGAGGG,-0.0409
10,GCCAGAGA,-0.214
11,CATTTGTC,0.174
12,GTAGAGGA,-0.099
13,ACCTGCTA,0.0839
14,AAGGTTTC,0.0811
15,GCCTGGAC,0.0141
16,AGTTGAGG,-0.118
17,ACTTATCC,-0.018
18,ATTTCACG,0.0073
19,AGACTAAG,-0.0385
20,ATTGAATC,-0.0365
21,AGAGAAGG,-0.152
22,CGGAACCC,-0.0527
23,GAGCTTGA,-0.127
24,AGACAAGG,0.00418
25,GCCTTTCA,0.159

row,Sequence,PBM E-score
1,GGAGTCAC,-0.27
2,GTCCGCAA,-0.234
3,ATGGCAGG,-0.0274
4,CGCAGCTC,-0.164
5,ACTATGAA,0.0261
6,ATGGGCGA,-0.254
7,ATGGCGGG,-0.294
8,CGCTAGAA,-0.156
9,CGAGAGGC,-0.106
10,ACCTACCA,0.12
11,AGGTCGCG,-0.287
12,GCGTCTAA,-0.0189
13,AAATACTC,-0.103
14,GCGCTTAA,-0.00701
15,CGACTTCC,-0.0315
16,TCGTGGCA,0.142
17,CGGCAGCA,0.0161
18,AGATTCTC,-0.0953
19,ATCACGAC,-0.113
20,GCACTTGA,0.051
21,CGTATCAA,-0.144
22,AACAATAG,0.12
23,CTGATCAG,0.00245
24,CACATGTC,0.196
25,ACATAAGA,0.284

row,Sequence,PBM E-score
1,ATTGTCGA,-0.0491
2,AATGCAGG,0.262
3,TGATTCCA,0.0225
4,ACACCTTA,0.157
5,ATGCGCTC,-0.0382
6,AACAGACA,0.144
7,AGATGCAA,-0.0384
8,AACAGCAG,0.0558
9,GACAGACC,-0.169
10,CAATTCCG,-0.132
11,CACTTATG,-0.00281
12,GACCCAGA,-0.155
13,CCCGAAGC,-0.161
14,TACTGCCA,-0.0386
15,AGAGTCCT,-0.17
16,GATCCTGC,0.0913
17,ACCAGAGT,-0.0443
18,CGCGGGAG,-0.344
19,TCTTCTCA,-0.064
20,ATTAAAAC,0.197
21,GCGCCAAC,-0.117
22,GTGGCACA,-0.137
23,AGGTTGGC,-0.22
24,ATGCGCCG,-0.131
25,CAGGAGCC,0.0966

row,Sequence,PBM E-score
1,AGTGCGCA,-0.234
2,ACTACGAT,-0.0182
3,CTGGTTCC,0.264
4,GCCGGCGC,-0.166
5,CTTTTTTC,0.154
6,CCGATGAA,-0.0796
7,TAGCCCGA,-0.203
8,AGTGTACC,-0.0469
9,GGGCGGCA,-0.262
10,CTGAATCC,-0.0061
11,ACTTAGGG,-0.0371
12,AAAGATTG,-0.0495
13,CGGTTTGC,0.00094
14,CATGGTGC,-0.0103
15,GTCATTTA,0.0594
16,AGCCTCAG,-0.186
17,AGGAATCG,-0.0247
18,CCGAGCGG,-0.262
19,ACCGCGAT,-0.134
20,AGGCGATC,-0.113
21,AAGATCCC,-0.183
22,ATTACACA,0.438
23,GAGTTCAA,0.163
24,CCACATGC,-0.0192
25,GGATGAGA,-0.207

row,Sequence,PBM E-score
1,CGTGGTGC,-0.0426
2,ATTGGTGA,-0.138
3,CATCGTCC,-0.0649
4,GCGGCCGA,-0.27
5,CAGGAGCA,-0.167
6,AGCGACTG,0.0488
7,TAAATAGA,0.0128
8,ACACAGCA,0.291
9,AAGACTGC,-0.243
10,AAGTTTAG,0.0474
11,CACCGCGC,-0.188
12,AGGGTTTG,-0.0138
13,CGGTTTGA,-0.0327
14,ATTCTGAA,-0.0991
15,ATCACACG,0.283
16,CGCGTGCC,0.433
17,CAGAAGAC,-0.0819
18,AGGTCCAG,-0.084
19,TAGCCCCA,-0.196
20,ACCATATG,0.0136
21,CTGCTCGA,-0.152
22,AAACTCGA,-0.105
